# According to PubChem BioAssay (NCATS):
# Inconclusive results are not listed. Unless noted, the call rests on the fitted dose curve. Some structures have more than one record in an assay (separate samples or runs), and their calls can disagree. For part of its entries the source gives two or more results. The list is limited to them. There may be further records. The values listed for one entry repeat one measurement across runs, samples, wells, individuals or studies. What stands in brackets tells the records apart. Letters count within one entry.
# What was measured:
# [1] = qHTS for Inhibitors of the Functional Ribonucleoprotein Complex (vRNP) of Lassa (LASV) Arenavirus: Viability assay - alamar blue signal for LASV Primary Screen (AID 1347083; calls by dose curve; tested in HEK293 reporter line; further: nearly all actives have a fitted effect of over 80% in size)
# [2] = qHTS for Inhibitors of the Functional Ribonucleoprotein Complex (vRNP) of Lymphocytic Choriomeningitis Arenaviruses (LCMV): Viability assay - alamar blue signal for LCMV Primary Screen (AID 1347085; calls by dose curve; tested in HEK293 reporter line; further: nearly all actives have a fitted effect of over 80% in size)
# [3] = qHTS of pediatric cancer cell lines to identify multiple opportunities for drug repurposing: Primary screen for SK-N-MC cells (AID 1347093; active means well fitted curve in the direction sought with a large enough effect; an effect the other way counts as inactive or inconclusive)
# [4] = qHTS for Inhibitors of the Functional Ribonucleoprotein Complex (vRNP) of Lassa (LASV) Arenavirus: LASV Primary Screen - GLuc reporter signal (AID 1347082; calls by dose curve; tested in HEK293 reporter line; further: nearly all actives have a fitted effect of over 60% in size)
# [5] = molecular target: Nucleoprotein (Lymphocytic choriomeningitis virus (strain Armstrong)) (UniProt P09992); assay: qHTS for Inhibitors of the Functional Ribonucleoprotein Complex (vRNP) of Lymphocytic Choriomeningitis Arenaviruses (LCMV): LCMV Primary Screen - GLuc reporter signal (AID 1347086); further: nearly all actives have a fitted effect of over 70% in size
# Sequence of UniProt P09992 (P09992 whole entry, looked up): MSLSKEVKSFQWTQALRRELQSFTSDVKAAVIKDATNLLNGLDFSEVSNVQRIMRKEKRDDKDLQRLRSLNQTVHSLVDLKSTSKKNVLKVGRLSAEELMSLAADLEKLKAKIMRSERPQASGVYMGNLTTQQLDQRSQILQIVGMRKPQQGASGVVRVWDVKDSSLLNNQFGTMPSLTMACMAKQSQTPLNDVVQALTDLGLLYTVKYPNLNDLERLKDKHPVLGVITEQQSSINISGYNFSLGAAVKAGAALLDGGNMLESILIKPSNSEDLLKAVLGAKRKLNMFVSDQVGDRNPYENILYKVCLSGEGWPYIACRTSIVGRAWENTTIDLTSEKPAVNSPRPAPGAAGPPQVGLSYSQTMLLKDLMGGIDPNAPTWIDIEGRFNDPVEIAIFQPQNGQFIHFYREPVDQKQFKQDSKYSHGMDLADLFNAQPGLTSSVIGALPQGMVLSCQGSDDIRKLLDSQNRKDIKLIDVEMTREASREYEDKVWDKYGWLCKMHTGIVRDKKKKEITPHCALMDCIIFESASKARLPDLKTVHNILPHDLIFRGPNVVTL
# [6] = qHTS of pediatric cancer cell lines to identify multiple opportunities for drug repurposing: Confirmatory screen for SK-N-SH cells (AID 1347129; active means well fitted curve in the direction sought with a large enough effect; an effect the other way counts as inactive or inconclusive;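 further: cells exposed to compound for 48 h before viability read; nearly all actives have a fitted effect of over 60% in size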)
# Summary of the method: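 Cells (500-1,000/well) in growth media were settled 5 h at 37 degrees C, then given compounds for 48 h. Viability was read as CellTiter-Glo luminescence. Primary runs used MIPE at 11 points (0.78 nM-46 µM) and NPC at 8 points (0.59 nM-46 µM); follow-ups used 11 points.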
# Potency means the concentration at half of the fitted maximal effect.
compound,measurement,setting,value
O=C(NOCC1CC1)c1ccc(F)c(F)c1Nc1ccc(I)cc1Cl,Potency,[1],inactive [sample A] and active: 7.69 µM [sample B]
CN1CCC(=C2c3ccccc3CC(=O)c3sccc32)CC1,Potency,[1],inactive [sample A] and active: 27.3 µM [sample B] and inactive [sample C]
CCC(=O)O[C@]1(C(=O)CCl)[C@@H](C)C[C@H]2[C@@H]3CCC4=CC(=O)C=C[C@]4(C)[C@@]3(F)[C@@H](O)C[C@@]21C,Potency,[1],inactive [sample A] and active: 9.68 µM [sample B]
O=C1N(c2ccccc2)c2ccccc2C1(Cc1ccncc1)Cc1ccncc1,Potency,[1],inactive [sample A] and inactive [sample B] and active: 5.44 µM [sample C]
same,Potency,[2],inactive [sample A] and inactive [sample B] and active: 7.69 µM [sample C]
COC(=O)C1=CCCN(C)C1,Potency,[3],active: 11.8 µM [sample A] and inactive [sample B]
C[C@@H]1C[C@H]2[C@@H]3CCC4=CC(=O)C=C[C@]4(C)[C@@]3(Cl)[C@@H](O)C[C@]2(C)[C@@]1(OC(=O)c1ccco1)C(=O)CCl,Potency,[4],inactive [sample A] and active: 17.2 µM [sample B]
same,Potency,[1],inactive [sample A] and active: 21.7 µM [sample B]
same,Potency,[2],inactive [sample A] and active: 12.2 µM [sample B]
O=C(Nc1ccc([N+](=O)[O-])cc1Cl)c1cc(Cl)ccc1O,Potency,[1],active: 7.08 µM [sample A] and inactive [sample B]
same,Potency,[5],active: 2 µM [sample A] and inactive [sample B] and active: 17.2 µM [sample C]
CCCCC(CC)COC(=O)C(C#N)=C(c1ccccc1)c1ccccc1 (stereo unspecified),Potency,[1],active: 8.63 µM [sample A] and inactive [sample B]
same,Potency,[2],active: 17.2 µM [sample A] and inactive [sample B]
same,Potency,[5],active: 13.7 µM [sample A] and inactive [sample B]
O=C(O)c1cccc(-c2noc(-c3ccccc3F)n2)c1,Potency,[2],active: 17.2 µM [sample A] and inactive [sample B]
C[C@@H]1C[C@@H]([C@H](O)CC2CC(=O)NC(=O)C2)C(=O)[C@@H](C)C1,Potency,[6],inactive [sample A] and active: 4.18 µM [sample B]
